Molecules are shown by their SMILES. Some compounds were tested as several samples or in several runs, with calls that do not always agree.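 Interpretation: 100, growth as untreated; towards 0, rising growth inhibition; 0, no net growth; 0 to -100, cell death. Compounds scoring below 10 were considered active.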 For part of its entries the source gives two or more results. They are shown here; other results are not. There may be further records. This drug was run again and again over the years, at the concentration stated with the values; each value is one run. Additions like (4×) say how often a value occurs here.

Assay in all cases: NCI-60 one-dose screen, 48 h (100 = growth as untreated, 0 = no growth, -100 = all killed)
What all share (settings): 2.5 mM

For assay [1], the system named is BT-549 breast.
Assay [2] relates to MDA-MB-435 melanoma.
The subject of assay [3] is SW-620 colon.

Turning to `O=c1[nH]cc(F)c(=O)[nH]1`, the growth entry is “inactive: 58.4, 37.2, 11.9, 32.5, 26.8, 45.9, 34.4, 47.9, 38.5, 17.8, 32.4, 29.1, 58, 40.7, 42.9, 55.4 (2×), 14.4, 55.5, 17.1, 36.6, 26.1, 52.9, 60.2, 39.5, 13.9, 54.4, 35.7, 13.1, 33.8, 62.3, 16.3% and active: 7.54, -22, -16, 8.96, -15.9, -11.3%” in assay [1] (runs of 1995); “inactive: 37.2, 45, 21.9, 40.1, 33.6, 68.9, 42.8, 46.8, 39.5 (2×), 32.9, 25.4, 36.4, 46.5, 64.9, 49.4, 30 (2×), 40.2 (2×), 26, 49.6, 35.2, 30.7, 48.5, 64.3, 42.2, 43.2, 33.1, 39.2, 29.4, 45.5, 39.9, 53.5, 46.1, 32.5, 33.7, 43.8, 52.2, 38.5, 34.6, 36.3, 47.2, 58.3, 41.4, 27.2, 35.8 (2×), 39.6, 34% and active: 4.66%, 4.88%, -32%” in assay [1] (runs of 1996); “inactive: 68, 45.8, 36.9, 61.7, 42.1, 26.8, 62.3, 44.6, 32.2, 30.5, 25.6, 18.5, 67.7, 31.6, 39.7, 34, 45.6, 38.2, 30.8, 38.3, 40.4, 45.1 (2×), 37.6, 77.8, 51.3, 24.2, 16.7, 49.9, 61.5, 47.9, 75, 20.9, 35.1, 47.5, 37.1, 51.4, 48.9, 21.8% and active: 9.73%, 5.16%” in assay [1] (runs of 1997); “inactive: 41.5, 37.3, 68.3, 41.3, 47.4, 64.8, 33, 23.2, 70.9, 31, 35.2, 70.5, 24.3, 25.4, 50, 34.2, 40.9, 45.5, 29.5, 38.1, 28.9, 86.1, 65.6% and active: -8.52%” in assay [1] (runs of 1998); “inactive: 56.3, 25.3, 25, 30.7, 32.7, 15.9% and active: -12.3, -30.1, 8.41, -51.1, -21.2, -63.4, 4.93, 3.66, 0.616%” in assay [1] (runs of 1999); “active: -64.1%, 1.91%, -54% and inactive: 11.1%” in assay [1] (runs of 2000). Moreover, the growth result was “inactive: 21.5, 20.3, 26.7, 32.1, 36.4, 25.5, 82.9, 21, 24, 23.8, 34.3, 34.5, 26.4, 29.1, 34.7, 16, 26, 26.2, 25.7, 22, 25.4, 23, 22.9, 16.2, 23.3, 30.8, 35.9, 10.8, 32.7, 93.5, 30.6, 22.2, 89.2, 36.6, 22.8, 20.5, 34.4, 26.8, 25.2, 28.7, 29.6%” in assay [2] (runs of 1993); “inactive: 26.9, 33.1, 47.9, 22.3, 24.8, 21.7, 29.5, 27.9, 24.3, 40, 27.7, 19.9, 18.9, 34.3, 27.8 (2×), 30, 30.9, 32.2, 27, 35, 24.1, 20.6, 23.9, 34.2, 28.1, 18.4, 39.9% and active: -25.5%” in assay [2] (runs of 1994); “inactive: 32.9, 29.2, 15.8, 23.6, 17.3, 34.5, 37.9, 26.3, 28, 30.3, 24.2, 16.3, 32.3, 25.4, 28.2, 32.1, 19.9, 20.7, 32.2, 28.7, 22.4, 38, 27.6, 28.3 (2×), 23.2, 10.6, 35.1, 19, 19.1, 25.3, 24.7, 23.8, 19.5, 21.3% and active: 9.02%, -10.7%, -38.4%” in assay [2] (runs of 1995); “inactive: 36.5, 29, 26, 39.8, 22.3 (2×), 35 (2×), 11.3, 22, 31.3 (2×), 30.2, 27.7 (2×), 25.4, 52.7, 20.8, 34.7, 34.5, 31.7, 25.5, 29.8 (2×), 28.4, 46.5, 29.6 (2×), 33, 17.2, 24.8, 33.4 (2×), 39.9, 38.6, 35.8, 34.6, 34.2, 27.1 (2×), 25.6, 25.7, 25.8, 27.3, 26.9, 37.2, 14.9, 27.6, 47.9, 37.8, 30.8, 38.4 (2×), 28.2, 29.9, 32.2, 37.1, 21.1%” in assay [2] (runs of 1996); “inactive: 25.2, 42.6, 24.6, 81, 19.9, 32.1, 29.2, 34.5, 36.7, 27.1, 33.4, 32.3, 33.5, 26.6, 15.5, 32.6, 21.2, 24.1, 29.5 (2×), 32.8, 23.6, 27.3, 29.6, 18.8, 25.5, 18.3, 23.3 (2×), 13.7, 25.8, 36.2, 22.5, 14.1, 19, 18.5, 30.4, 28.2, 25.9% and active: -100 (2×), -4.75, 1.21, 4.61%” in assay [2] (runs of 1997); “active: -6.04% and inactive: 24.1, 25.5, 36, 35.7, 43.3, 35, 23.1, 21.2, 23.4, 37.7, 18.5, 28, 29.7, 22.9, 17.4, 38, 27.7, 17.8, 35.4, 20.3, 39.5, 18.7, 42.6, 19.7, 22%” in assay [2] (runs of 1998). Besides, the growth result was “active: -26, -63.6, 1.66, 0.155, -15.3, 0.0634, 6.07, 1.36, 0.687, -75, -34.5% and inactive: 45.3, 10.7, 12.8, 32.3, 32.1, 74.4%” in assay [2] (runs of 1999); “active: 2.44, -30.1, -32.7, -26%” in assay [2] (runs of 2000); “inactive: 30.1, 23.9, 21.3, 22.7, 24.6, 20.1, 14.3 (2×), 18.8, 10.4, 19.4, 18.2, 29, 14.1, 21.9, 29.9, 15.2, 15.6% and active: -87.4%” in assay [3] (runs of 1991); “inactive: 26.9, 17.3, 16.6 (2×), 15.3 (2×), 12.7, 28, 22.6 (2×), 14.5, 19.1 (2×), 20.8 (2×), 24.3 (3×), 26.7 (2×), 17.5, 38.8, 20.2 (2×), 10.5, 47, 42.9, 25.7, 23.3, 21.6 (2×), 13.2, 14.9, 20.3 (2×), 24.2 (2×), 23.8 (2×), 21.2, 23.6, 25.2 (2×), 20.9, 33, 21.9 (3×), 16, 24.4 (3×), 23, 24.8 (2×), 22.1 (4×), 17.8, 18.8, 26.2, 23.4 (2×), 18.5, 20.4, 28.3, 29.4 (2×), 21.3 (2×), 21.8, 15.9, 19, 23.2, 13.8, 12.1, 25.3, 16.9, 22.3 (2×), 31.8, 14.8, 22.4 (3×), 22 (2×), 26.6 (2×), 19.5, 18.2, 18 (3×), 23.7, 37.6, 19.7, 13.6, 28.8, 24.5, 29.3, 29.8, 24, 37.9, 29.9, 26.4, 17.6, 36.9, 22.8% and active: -55.6, 7.07, -14.6, -69.2, -96.5, 9.51, -68.8%” in assay [3] (runs of 1992); “inactive: 21.8, 27.2, 27.5, 28.1, 23.8, 24.2, 23.3, 28.8, 12.9, 14.9, 20.2 (2×), 19.5, 26.3, 22.6, 18.4, 24.8, 20.7, 35.9, 29.3 (2×), 18.2, 16, 19.9, 32.9, 22.5 (2×), 25.1, 26.4, 22.1 (2×), 13.9, 19.1, 23.5, 18.9, 31.1, 23.2, 18, 31.7, 21.7, 76.2, 69, 20.4, 35.5, 30.6, 30.2, 40.5, 25.7%” in assay [3] (runs of 1993); “inactive: 30.1 (2×), 23.8 (2×), 21.6, 31.1, 24.3, 29.9, 19.3, 15.5, 22.8 (2×), 27.4, 30.3 (2×), 23, 22.3 (2×), 23.5, 20.8, 16.7, 32.8 (2×), 23.2, 32.6 (2×), 23.7, 33.9, 25.5, 23.4, 32, 25.7, 28.2, 17.8, 27.3%” in assay [3] (runs of 1994). The growth entry in assay [3] (runs of 1995) is “inactive: 37.7, 18.3 (3×), 23.6, 24.2, 29, 18.9, 27.2, 20.9 (2×), 27.1, 26.5, 28.6, 30.6 (2×), 26.4, 27.7, 31.1, 24.8, 24.7, 32.8, 17.1, 22.9, 32.2, 19, 25.3, 19.6, 30.9, 16.7, 28.3, 10.8, 13.7, 12.1% and active: 0.694, -58.6, 3.7, -12.2, 8.46%”; in assay [3] (runs of 1996), “inactive: 27.8, 12.6, 29.9, 35.1, 26.5 (2×), 26.3, 31.5, 35.3, 15.8, 36.9, 29.3, 32.3 (2×), 11.6, 16.1, 23.2, 13.8 (2×), 23.9, 22.9, 21.5 (2×), 16.3, 35.2, 26.2, 11.2, 29, 18.8, 19.1, 25.1, 13.6, 23.1, 20.1, 14.1, 10.5, 27.5, 27.7, 25.4, 19.7, 42.1, 29.6, 18.7, 10.9, 38.8, 20, 17.6, 31.4, 31.1% and active: 9.48, 5.8, 7.54, 3.01, -9.41, 7.83%”; in assay [3] (runs of 1997), “inactive: 28.1, 40.3, 31 (2×), 95.6, 29.1 (2×), 39.2, 24.8, 27.4, 26.1, 24, 32.3, 22.8, 17.4, 22.9, 18.2, 25.2, 36, 26.5, 22, 23.4 (2×), 14.5, 24.7, 25.3, 28.8, 26.8, 22.2 (2×), 17.2, 21.2, 19, 23.5, 30.3, 31.5, 22.6, 28.6% and active: -100, -22.2, 9.88, 3.03, -47.3, 9.78%”.

For the origin of these results see PubChem BioAssay (NCI).
